Source: the supplement of paper PMC8728848
This is one part of the list.

Tests used:
Experiment in all cases: glycan array binding signal (z-score within array); higher = stronger binding
Conditions in all cases: glycan notation: IUPAC condensed, linker removed
[1] = molecular target: Gal(b1-4)GlcNAc(b1-3)Gal(b1-4)GlcNAc(b1-3)Gal(b1-4)GlcNAc(b1-3)Gal(b1-4)GlcNAc(b1-2)Man(a1-3)[Gal(b1-4)GlcNAc(b1-3)Gal(b1-4)GlcNAc(b1-3)Gal(b1-4)GlcNAc(b1-3)Gal(b1-4)GlcNAc(b1-2)Man(a1-6)]Man(b1-4)GlcNAc(b1-4)GlcNAc
Procedure, shortened: (§1)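 Glycan array binding is given as a within-array Z-score, which can be read as non-binding when negative. The arrays, 3228 of them, came from the Consortium for Functional Glycomics database and were retained only where the protein sequence was available. Z-scores were averaged across arrays of the same protein sequence at different concentrations or buffers and across linkers.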

[2] = molecular target: Gal(b1-4)GlcNAc(b1-3)Gal(b1-4)GlcNAc(b1-3)Gal(b1-4)GlcNAc(b1-3)Gal(b1-4)GlcNAc(b1-2)Man(a1-3)[Gal(b1-4)GlcNAc(b1-3)Gal(b1-4)GlcNAc(b1-3)Gal(b1-4)GlcNAc(b1-3)Gal(b1-4)GlcNAc(b1-2)Man(a1-6)]Man(b1-4)GlcNAc(b1-4)[Fuc(a1-6)]GlcNAc
Procedure, shortened: as §1

[3] = molecular target: Gal(b1-4)GlcNAc(b1-3)Gal(b1-4)GlcNAc(b1-3)Gal(b1-4)GlcNAc(b1-3)Gal(b1-4)GlcNAc(b1-2)[Gal(b1-4)GlcNAc(b1-3)Gal(b1-4)GlcNAc(b1-3)Gal(b1-4)GlcNAc(b1-3)Gal(b1-4)GlcNAc(b1-6)]Man(a1-6)[Gal(b1-4)GlcNAc(b1-3)Gal(b1-4)GlcNAc(b1-3)Gal(b1-4)GlcNAc(b1-3)Gal(b1-4)GlcNAc(b1-2)Man(a1-3)]Man(b1-4)GlcNAc(b1-4)[Fuc(a1-6)]GlcNAc
Procedure, shortened: as §1

[4] = molecular target: Gal(b1-4)GlcNAc(b1-3)Gal(b1-4)GlcNAc(b1-3)Gal(b1-4)GlcNAc(b1-3)Gal(b1-4)GlcNAc(b1-3)Gal(b1-4)GlcNAc(b1-2)Man(a1-3)[Gal(b1-4)GlcNAc(b1-3)Gal(b1-4)GlcNAc(b1-3)Gal(b1-4)GlcNAc(b1-3)Gal(b1-4)GlcNAc(b1-3)Gal(b1-4)GlcNAc(b1-2)Man(a1-6)]Man(b1-4)GlcNAc(b1-4)GlcNAc
Procedure, shortened: as §1

[5] = molecular target: Gal(b1-4)GlcNAc(b1-3)Gal(b1-4)GlcNAc(b1-3)Gal(b1-4)GlcNAc(b1-3)Gal(b1-4)GlcNAc(b1-3)Gal(b1-4)GlcNAc(b1-2)Man(a1-3)[Gal(b1-4)GlcNAc(b1-3)Gal(b1-4)GlcNAc(b1-3)Gal(b1-4)GlcNAc(b1-3)Gal(b1-4)GlcNAc(b1-3)Gal(b1-4)GlcNAc(b1-2)Man(a1-6)]Man(b1-4)GlcNAc(b1-4)[Fuc(a1-6)]GlcNAc
Procedure, shortened: as §1

[6] = molecular target: Gal(b1-4)GlcNAc(b1-3)Gal(b1-4)GlcNAc(b1-3)Gal(b1-4)GlcNAc(b1-3)Gal(b1-4)GlcNAc(b1-3)Gal(b1-4)GlcNAc(b1-2)[Gal(b1-4)GlcNAc(b1-3)Gal(b1-4)GlcNAc(b1-3)Gal(b1-4)GlcNAc(b1-3)Gal(b1-4)GlcNAc(b1-3)Gal(b1-4)GlcNAc(b1-6)]Man(a1-6)[Gal(b1-4)GlcNAc(b1-3)Gal(b1-4)GlcNAc(b1-3)Gal(b1-4)GlcNAc(b1-3)Gal(b1-4)GlcNAc(b1-3)Gal(b1-4)GlcNAc(b1-2)Man(a1-3)]Man(b1-4)GlcNAc(b1-4)[Fuc(a1-6)]GlcNAc
Procedure, shortened: as §1

[7] = molecular target: Gal(b1-4)GlcNAc(b1-3)Gal(b1-4)GlcNAc(b1-3)Gal(b1-4)GlcNAc(b1-3)Gal(b1-4)GlcNAc(b1-3)Gal(b1-4)GlcNAc(b1-3)Gal(b1-4)GlcNAc(b1-2)Man(a1-3)[Gal(b1-4)GlcNAc(b1-3)Gal(b1-4)GlcNAc(b1-3)Gal(b1-4)GlcNAc(b1-3)Gal(b1-4)GlcNAc(b1-3)Gal(b1-4)GlcNAc(b1-3)Gal(b1-4)GlcNAc(b1-2)Man(a1-6)]Man(b1-4)GlcNAc(b1-4)GlcNAc
Procedure, shortened: as §1

[8] = molecular target: Gal(b1-4)GlcNAc(b1-3)Gal(b1-4)GlcNAc(b1-3)GalNAc
Procedure, shortened: as §1

[9] = molecular target: Gal(b1-4)GlcNAc(b1-3)Gal(b1-4)GlcNAc(b1-3)[Gal(b1-4)GlcNAc(b1-3)Gal(b1-4)GlcNAc(b1-6)]GalNAc
Procedure, shortened: as §1

[10] = molecular target: Gal(b1-4)GlcNAc(b1-3)Gal(b1-4)GlcNAc(b1-6)[Gal(b1-3)]GalNAc
Procedure, shortened: as §1

[11] = molecular target: Gal(b1-4)GlcNAc(b1-3)Gal(b1-4)[Fuc(a1-3)]GlcNAc(b1-3)Gal(b1-4)[Fuc(a1-3)]GlcNAc
Procedure, shortened: as §1

[12] = molecular target: Gal(b1-4)GlcNAc(b1-3)GalNAc
Procedure, shortened: as §1

[13] = molecular target: Gal(b1-4)GlcNAc(b1-3)[Fuc(a1-3)GlcNAc(b1-6)]Gal(b1-4)Glc
Procedure, shortened: as §1

[14] = molecular target: Gal(b1-4)GlcNAc(b1-3)[Gal(b1-4)GlcNAc(b1-6)]Gal(b1-4)GlcNAc
Procedure, shortened: as §1

[15] = molecular target: Gal(b1-4)GlcNAc(b1-3)[GlcNAc(b1-6)]Gal(b1-4)GlcNAc
Procedure, shortened: as §1

[16] = molecular target: Gal(b1-4)GlcNAc(b1-6)Gal(b1-4)GlcNAc
Procedure, shortened: as §1

[17] = molecular target: Gal(b1-4)GlcNAc(b1-6)GalNAc
Procedure, shortened: as §1

[18] = molecular target: Gal(b1-4)GlcNAc(b1-6)[Gal(b1-3)]GalNAc
Procedure, shortened: as §1

[19] = molecular target: Gal(b1-4)GlcNAc(b1-6)[Gal(b1-4)GlcNAc(b1-3)]GalNAc
Procedure, shortened: as §1

[20] = molecular target: Gal(b1-4)GlcNAc6P
Procedure, shortened: as §1

[21] = molecular target: Gal(b1-6)Gal
Procedure, shortened: as §1

[22] = molecular target: Gal3S(b1-3)GalNAc
Procedure, shortened: as §1

[23] = molecular target: Gal3S(b1-3)GlcNAc
Procedure, shortened: as §1

B1: LICBM33A (Lactococcus lactis), Q9CE94 (protein)
chain: MKKLLTGLLVAAGLLSVSLLIKTDTVSAHGYVQSPPARGYQGQLDSQSLGWTAAFNIYGNVISNPQSLEAPKGFPECGPADGRIASANGGLGQIGDFVLDNQTSSRWKKTSISTGSNIFTWKYTAPHKTTKWHYYMTKTGWDQNAPLKHSELELIGTINHDGSPATNNLSHTINIPTDRSGYHIVLAVWDVADTSNAFYNVIDINVNNKNASSQVFGPFL
- glycan array binding signal (z-score) [1]: 3.05
- glycan array binding signal (z-score) [2]: 4.11
- glycan array binding signal (z-score) [3]: -0.119
- glycan array binding signal (z-score) [4]: 0.843
- glycan array binding signal (z-score) [5]: 6.2
- glycan array binding signal (z-score) [6]: 6.18
- glycan array binding signal (z-score) [7]: -0.395
- glycan array binding signal (z-score) [8]: -0.241
- glycan array binding signal (z-score) [9]: -0.232
- glycan array binding signal (z-score) [10]: 0.491
- glycan array binding signal (z-score) [11]: -0.164
- glycan array binding signal (z-score) [12]: -0.527
- glycan array binding signal (z-score) [13]: -0.356
- glycan array binding signal (z-score) [14]: -0.182
- glycan array binding signal (z-score) [15]: -0.24
- glycan array binding signal (z-score) [16]: -0.341
- glycan array binding signal (z-score) [17]: -0.959
- glycan array binding signal (z-score) [18]: 0.787
- glycan array binding signal (z-score) [19]: -0.654
- glycan array binding signal (z-score) [20]: 0.236
- glycan array binding signal (z-score) [21]: -0.335
- glycan array binding signal (z-score) [22]: -0.215
- glycan array binding signal (z-score) [23]: -0.098
